Experimental findings from the supplement of paper PMC4166925 are described below.

± gives the standard deviation of the averaged measurements. The full ranking holds about 33,000 sequences; the median of “E-score (dimensionless, -0.5 to 0.5)” is about -0.046, and the highest 2% start at about 0.36. This is one part of the list.

For this experiment, the system named is T1, SpTbr T-box DNA-binding domain (GST fusion).
T1 sequence: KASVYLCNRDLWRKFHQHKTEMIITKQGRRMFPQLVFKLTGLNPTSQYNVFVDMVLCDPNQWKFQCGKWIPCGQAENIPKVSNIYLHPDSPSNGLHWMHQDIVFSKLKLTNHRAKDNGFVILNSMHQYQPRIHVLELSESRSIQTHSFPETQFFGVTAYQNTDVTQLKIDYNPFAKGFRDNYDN
Description: PBM E-score of 8-mer (E-score (dimensionless, -0.5 to 0.5)); Tbr is Tbrain of the sea star Patiria miniata (Pm) or the sea urchin Strongylocentrotus purpuratus (Sp); higher = stronger binding preference; most listed sequences are background and not binding sites. The following applies: the construct has about 5 more residues each side. Summed up: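 Using the Universal PBM Analysis Suite, every ungapped 8-mer received an enrichment E-score averaged over duplicate arrays. Probe intensities came from double-stranded Universal Agilent oligonucleotide arrays incubated with 200 nM GST-fused Tbr T-box DNA-binding domain in PBS (pH 7.5). That protein was expressed in BL21 E. coli at 20 °C and purified by glutathione affinity chromatography.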
With GTTAGCAA, the “PBM E-score of 8-mer” value turned out to be 0.281 ± 0.014. Consider AACCAGGC, for which the “PBM E-score of 8-mer” value is -0.0137 ± 0.052.

Turning to TCGTGAGA, the “PBM E-score of 8-mer” value came out at 0.2742 ± 0.0015. Then CTCGCACC, with 0.451 ± 0.016; and AAAGGCGC, with 0.143 ± 0.02.

On to TCAAGTCA, for which the “PBM E-score of 8-mer” value amounted to 0.0173 ± 0.035. To GTCCGGCA belongs -0.208 ± 0.052; to ACGTTTTC, 0.0181 ± 0.036. Regarding AAGAATTC, the “PBM E-score of 8-mer” value was -0.22 ± 0.027. Then GTCTGAAC, with -0.179 ± 0.056. Take AAGGCGAA: the “PBM E-score of 8-mer” value was -0.0734 ± 0.06.

Regarding AGGCAACC, the “PBM E-score of 8-mer” value was -0.0351 ± 0.077. To ATTAAAAA belongs -0.19 ± 0.055; to ATATGAAC, -0.242 ± 0.0091; to ACCGGCAT, -0.035 ± 0.036.

CCAGTGAC: the “PBM E-score of 8-mer” value was found to be 0.2 ± 0.064. To GTCACGGA belongs 0.02225 ± 0.00018; to CAGATTGG, -0.222 ± 0.04. Then AAGAAGTA, with -0.119 ± 0.082. Then AAGATACA, with -0.0756 ± 0.027. In the case of ATATGGGG, the “PBM E-score of 8-mer” value was -0.0719 ± 0.065. To AGAGAGCG belongs -0.156 ± 0.15; to CACCAAGC, 0.129 ± 0.017; to CAGTCCCC, 0.0758 ± 0.019. To ATGGGGGC belongs -0.283 ± 0.021; to GGTCTGTA, -0.105 ± 0.027; to CACAAATG, 0.0142 ± 0.013. To ACTAGACG belongs -0.0329 ± 0.087; to GCGGACCC, -0.0093 ± 0.057; to GTACGGCA, -0.125 ± 0.056. CAACGGAA: the “PBM E-score of 8-mer” value was -0.0672 ± 0.0065. Turning to GCTAGTGA, the “PBM E-score of 8-mer” value came to 0.107 ± 0.08. CCGGTTAG: the “PBM E-score of 8-mer” value was -0.097 ± 0.034. To CGGCGCAG belongs -0.146 ± 0.01.

On to ACCCTCAT, for which the “PBM E-score of 8-mer” value is -0.034 ± 0.0071.

In the case of AGTACCAC, the “PBM E-score of 8-mer” value was 0.0848 ± 0.013.

For the sequence AACGAGTG, the “PBM E-score of 8-mer” value was found to be 0.207 ± 0.035.

As for TAACAGGA, the “PBM E-score of 8-mer” value came out at 0.0565 ± 0.05. Then ATACTCCG, with -0.0529 ± 0.022; and GCCGATAC, with -0.0846 ± 0.051.

Turning to CGAAATGC, the “PBM E-score of 8-mer” value was -0.00805 ± 0.018.

CACGCATC: the “PBM E-score of 8-mer” value stood at 0.29 ± 0.06.

CAACAATA: the “PBM E-score of 8-mer” value was found to be 0.0592 ± 0.055.

With ACCCCCCT, the “PBM E-score of 8-mer” value is -0.162 ± 0.03. Turning to TACTGTCA, the “PBM E-score of 8-mer” value was 0.225 ± 0.018.

For the sequence AGGATTCA, the “PBM E-score of 8-mer” value came to 0.00326 ± 0.075. To CTGGAGTC belongs -0.327 ± 0.041. To CTCCAAGA belongs -0.0401 ± 0.032; to CTACCGAA, -0.121 ± 0.044; to CGCCTAAC, 0.0936 ± 0.028. For the sequence GGCTAGTA, the “PBM E-score of 8-mer” value is -0.0663 ± 0.054. Then AGTTAGGA, with -0.154 ± 0.055; and ACTTCCCG, with 0.194 ± 0.014. With ACCCTCGT, the “PBM E-score of 8-mer” value was determined as 0.0993 ± 0.059. Then AATTGCGC, with 0.0489 ± 0.068; and CATGGTAA, with -0.0644 ± 0.039.

On to ACGTATAC, for which the “PBM E-score of 8-mer” value was found to be 0.115 ± 0.0037.

For the sequence CTTTCCAC, the “PBM E-score of 8-mer” value worked out at 0.168 ± 0.052. For AGGAATGA, the “PBM E-score of 8-mer” value is -0.0977 ± 0.051. Then GTGCGACA, with 0.398 ± 0.012.

In the case of AGTTAGTC, the “PBM E-score of 8-mer” value is -0.00951 ± 0.033.

Regarding ACGCAAGT, the “PBM E-score of 8-mer” value worked out at 0.133 ± 0.0079. Then CGTATCGA, with 0.0888 ± 0.052; and CGTGGGCA, with -0.00054 ± 0.027; and CCACTCGA, with 0.0269 ± 0.035.

In the case of AACATTGA, the “PBM E-score of 8-mer” value is -0.00728 ± 0.0098.

Take CGTGAGAA: the “PBM E-score of 8-mer” value is 0.347 ± 0.016. To CGCGGGAC belongs 0.0315 ± 0.064; to CATGGCAC, 0.168 ± 0.054. For CACTTCCG, the “PBM E-score of 8-mer” value was 0.334 ± 0.0095. Turning to CTGCCGCC, the “PBM E-score of 8-mer” value is 0.0831 ± 0.063. Then GTTGCCTA, with -0.0282 ± 0.085; and CAAGTTGA, with 0.16 ± 0.02.

Consider GACCATCA, for which the “PBM E-score of 8-mer” value is -0.184 ± 0.0046.

For AAAGTTAA, the “PBM E-score of 8-mer” value is -0.136 ± 0.012. For the sequence AAGTAAGT, the “PBM E-score of 8-mer” value is -0.0459 ± 0.036.

As for AACGGCAG, the “PBM E-score of 8-mer” value is -0.0394 ± 0.0079. To ACTTATAC belongs -0.0261 ± 0.0079; to ATTGTGTC, 0.228 ± 0.03.

Take CAATTCTC: the “PBM E-score of 8-mer” value was -0.00088 ± 0.029.

GATCTCGC: the “PBM E-score of 8-mer” value amounted to 0.294 ± 0.025. Then ATACCGCG, with -0.0658 ± 0.021; and ATTTATTG, with -0.134 ± 0.013; and ATAGAAAG, with -0.129 ± 0.012. For the sequence GTTGGACA, the “PBM E-score of 8-mer” value was 0.069 ± 0.035. On to GAGCGCTC, for which the “PBM E-score of 8-mer” value was -0.00869 ± 0.038. To TACTATGA belongs -0.225 ± 0.053; to AGTCGGAC, -0.309 ± 0.081; to CCGATTTC, -0.0463 ± 0.011. With AACTTCTC, the “PBM E-score of 8-mer” value is -0.0445 ± 0.034.

On to CCCCGCCC, for which the “PBM E-score of 8-mer” value stood at 0.0179 ± 0.047. Take ATACCAAA: the “PBM E-score of 8-mer” value was -0.0604 ± 0.041. To ATGCACTC belongs -0.0356 ± 0.012. Then ACAGATAG, with 0.131 ± 0.025.
